Assay in all cases: NCI-60 one-dose screen, 48 h (100 = growth as untreated, 0 = no growth, -100 = all killed)
In one assay the test system is MOLT-4 leukemia. The note with it: 2.5 mM.
The next assay relates to SR leukemia. Particulars: 2.5 mM.
Another assay relates to RPMI-8226 leukemia. The note with it: 2.5 mM; runs of 1991.

Some structures have more than one record in an assay (separate samples or runs), and their calls can disagree.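 A percent growth of 40 corresponds to 60% growth inhibition; 0 means no net growth; -100 means all cells died. Active threshold: below 10.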 Certain results were filed several times, with different values. Only these are listed. The source may hold further records. This drug was run again and again over the years, at its own concentration, as given; each value is one run. Additions like (4×) say how often a value occurs here.

Take `O=c1[nH]cc(F)c(=O)[nH]1`: the growth result in the assay on MOLT-4 leukemia (runs of 1997) was “active: 5.06, -21.3, -16.5, -22.3, 8.23, -26.7, -23.3, -31.8, -20.6, 0.704, 2.26, -12.9, 9.77, 3.7, -43.2, 1.4, 1.84, -5.57, -37.5, -25.2, -17.9, 1.16, -19.9, -52.8, -32.6% and inactive: 61.6, 10.2, 22.3, 41.1, 31.2, 18.9, 21.6, 19.6, 131, 15.8, 17.7, 47.3, 38.9, 22.2, 13.5, 35.7, 11.9, 23.3%”; with MOLT-4 leukemia (runs of 1998), “inactive: 25.5, 17.2, 39.7, 21.4, 22.7, 27.4, 42.2, 11.5, 35.6, 12.9% and active: -2.04, -24.2, -25, -39, 9.96, -19.5, 3.49, -11, 2.74, -56, 7.45, -37.5, 6.47, -19.1, -1.91, -18, 5.84%”; in the assay with MOLT-4 leukemia (runs of 1999) it was “active: 8.91, -22.3, 3.77, -50.6, 5.82, -55.4, -40.4, 0.53, 4.47, -72.6, 7.27, 6.22% and inactive: 18.3, 15.1, 19.1, 96.3%”; with MOLT-4 leukemia (runs of 2000) it was “active: 1%, 0.815% and inactive: 28.6%, 12.7%”; in the assay on SR leukemia (runs of 1991), “inactive: 10.7, 22, 12.7, 14.2, 21.8, 64.2, 17.1, 44.4, 37.8% and active: 8.79, 3.79, 9.57, 3.34, 8.21%”; in the assay on SR leukemia (runs of 1992), “inactive: 19.3, 18, 12.6, 47.5, 13.6, 37.1, 18.8, 34.7, 25.9, 20.9, 25.2, 21.5 (2×), 22.2, 16 (2×), 10.8, 15.2, 22.1, 15.6, 19.4, 52, 49.1, 18.7, 11.9, 12.7, 19, 14, 31.5, 19.2, 23.8, 84.8, 14.6, 12.2, 14.2, 27.9% and active: -10.6, -28, -13.9 (2×), 0.442, -41, -34.9, -6.43, -30.7, -13.3, -13, 9.67, -37.8, -21.5, -30.3, -5.13, -10.5, 8.2, -14.9, -11.7, 4.92, 7.6, -4.23, -20.9, -13.1, 7.93, 4.29, 8.85, 0.731, 0.249, 2.48, -10.4, 4.81, 4.2, 4.91, -9.81, -10.3, 5.59, 8.74, -26.4%”. Besides, the growth result in the assay with SR leukemia (runs of 1993) is “inactive: 22.9, 17, 38.6, 22.6, 20.6, 20.7, 15.3, 26.8, 29.1, 53.4, 17.5, 26.5, 12.7, 11.4, 14.1, 58.7, 17.8, 16.7, 96.2, 45.5, 24.2, 16.5, 16.9, 24.4, 23.9% and active: 6.61, -15.2, 6.65, -2.05, 1.08, 9.09, -5.46, 5.77, -1.49, 1.75, -21, -12.9, -14.9, 9.28, -1.4, 5.21, -17.8, -3.56, 2.15, -2.96, -42.6, -19.9, 3.14%”; in the assay with SR leukemia (runs of 1994) it was “inactive: 21.3, 18.7, 28.1, 13.4, 51, 39.3, 23.6, 11.5 (2×), 17.3, 65.1, 20.9, 20.2, 54.8, 24.7, 17.7, 22.1, 30.6, 32.5, 17.1% and active: -35.5, 9.6, -15.5, -33.9, -5.47, 5.11, -26.6, 1.13, -38%”; in the assay on SR leukemia (runs of 1995), “active: -6.57, -34.1, -18, -12.6, -5.42, 5.55, 7.2, -18.6, 3.04, -37.8, -3.4, -13.4, 9.74, -40.8, 4.51, 3.19, 8.85, 0.895, -42.5, -54.3, -47.5, -14.8, -10.1, -52.4, -38.8, -13.8, -51, 0.187% and inactive: 12.4, 16.8, 32, 14.7, 18.7, 21.4, 29.9, 11.3%”; in the assay on SR leukemia (runs of 1996), “active: -25.2, -22.4, 5.35, -22.5, 0.454, -5.3, -47.8, 8.62, -4.33, -24.7, -25.3, -6.01, -12.7, -57.5, -47.6, -12.4, -15.5, -25.6, -17.3, -49.6, -14, -67.1, -50.5, -25.9, -54.9, -5.84, -94.6, -21.3, -21.5% and inactive: 39.2, 31.3, 28.6, 19.6, 26, 56.7, 54.1, 23.9%”; with SR leukemia (runs of 1997), “active: -31.4, -28, -26.8, -39.4, -69.9, -53.6, -19.5, -33.6, -55, -7.14, 1.86, -18.4, 9.39, 3.05, -65.6, -17.4% and inactive: 38.6, 39.6, 40, 12.6, 77.4, 25.2, 26.2, 16.4, 46.3, 51.5%”; in the assay on SR leukemia (runs of 1998) it was “inactive: 13.1, 26.5, 17.5, 20.7, 10.1, 38.5, 19.7, 13.5, 35.9, 11.9% and active: 8.87, 9.06, -47.2, 6.41, -6.47, 4.71, -28.8, 4.34, -29.2, 2.97, 9.83%”. In addition, the growth entry in the assay with SR leukemia (runs of 1999) is “inactive: 33.5%, 11.4%, 17.1% and active: -50.9, -19.6, -14.2, 5.9, 4.28%”; with SR leukemia (runs of 2000) it was “active: -40.6%, 9.26%, -54.2%”; in the assay with RPMI-8226 leukemia, “inactive: 22.4, 23.5, 35.7, 27, 13, 10.6, 26, 20.2, 13.6, 28, 50.6, 13.3% and active: -42.6%, 8.55%, 8.27%”.

These data come from PubChem BioAssay (NCI).
